According to the supplement of paper PMC10670038:
Counter-ions that a name gives are not always drawn. ± gives the standard deviation of the averaged measurements. Over roughly 2,000 compounds, “relative cell viability vs DMSO, compound + 0.2 uM CuET” has its median near 1; the lowest 2% begin near 0.25. This is one part of the list.

Test system: TE10
Assay: relative cell viability vs DMSO, compound + 0.2 uM CuET (fraction); TE10 is an esophageal squamous carcinoma line; higher = less cytotoxic
Conditions: 2 µM; co-treatment: CuET (bis(diethyldithiocarbamate)copper) 0.2 uM; 48 h
Experimental: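 TE10 ESCC cells (1,000/well, 384-well plates) were treated with Selleck bioactive library compounds at 2 uM combined with 0.2 uM CuET (copper diethyldithiocarbamate) for 48 h. Viability was read by CellTiter-Glo and expressed relative to DMSO wells. Two technical replicates (A, B).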

| SMILES | relative cell viability |
| --- | --- |
| C=C[C@](C)(O)CC[C@@H]1[C@@]2(C)CCCC(C)(C)[C@@H]2CC[C@@]1(C)O [Sclareol] | 0.939 ± 0.14 |
| CNC(=O)[C@@H](NC(=O)[C@H](CC(C)C)[C@H](O)C(=O)NO)C(C)(C)C [Marimastat(BB-2516)] | 0.936 ± 0.11 |
| C[C@]12CC[C@@H]3c4ccc(O)cc4C[C@@H](CCCCCCCCC[S+]([O-])CCCC(F)(F)C(F)(F)F)[C@H]3[C@@H]1CC[C@@H]2O (stereo not given in full) [Fulvestrant] | 1.03 ± 0.015 |
| Clc1ccc(C2(c3ccc(-c4cn[nH]c4)cc3)CCNCC2)cc1 | 1.02 ± 0.029 |
| CCS(=O)(=O)c1cccc(-c2cc(C(=O)NC3CCN(C)CC3)c(C)c3[nH]c4ncc(C)cc4c23)c1 | 0.886 ± 0.14 |
| COC(=O)[C@H](Cc1ccccc1)NC(=O)[C@@H](N)CC(=O)O [Aspartame] | 1.09 ± 0.034 |
| NC(=O)C1CCCc2c1[nH]c1ccc(Cl)cc21 (stereo not given) [EX 527 (Selisistat)] | 1.15 ± 0.033 |
| CCCCc1oc2ccc(NS(C)(=O)=O)cc2c1C(=O)c1ccc(OCCCN(CCCC)CCCC)cc1 [Dronedarone HCl] | 0.497 ± 0.083 |
| CCC1(c2ccccc2)C(=O)NCNC1=O [Primidone] | 0.884 ± 0.059 |
| COc1cc(Nc2c(C#N)cnc3cc(OCCCN4CCN(C)CC4)c(OC)cc23)c(Cl)cc1Cl [Bosutinib (SKI-606)] | 0.785 ± 0.17 |
| CN(C)CCC(c1ccc(Br)cc1)c1ccccn1 (stereo not given) [Brompheniramine hydrogen maleate] | 1.21 ± 0.013 |
| COc1ccc(Cl)cc1NC(=O)Nc1cc(C)nc2ccccc12 | 1.06 ± 0.04 |
| c1ccc(-c2ccc(C(c3ccccc3)n3ccnc3)cc2)cc1 (stereo not given) [Bifonazole] | 0.885 ± 0.046 |
| Oc1c(Cl)cc(Cl)c2cccnc12 [Chloroxine] | 0.502 ± 0.07 |
| O=C1CC[C@@H](C(=O)N2CSC[C@H]2C(=O)O)N1 [Pidotimod] | 1.05 ± 0.17 |
| O=C(Nc1cccnc1)c1cc(-c2ccnc(F)c2)ccc1OCc1ccccc1 | 0.887 ± 0.14 |
| CCOc1nc2cccc(C(=O)O)c2n1Cc1ccc(-c2ccccc2-c2nnn[nH]2)cc1 [Candesartan] | 1.06 ± 0.031 |
| C=CC(=O)Nc1cccc(Oc2nc(Nc3ccc(N4CCN(C)CC4)cc3)ncc2Cl)c1 | 0.827 ± 0.063 |
| C[C@@](Cc1ccc(O)c(O)c1)(NN)C(=O)O [Carbidopa] | 0.896 ± 0.024 |
| CC1CCN(CC[C@H]2CCCN2S(=O)(=O)c2cccc(O)c2)CC1 | 1.14 ± 0.031 |

| SMILES | relative cell viability |
| --- | --- |
| Nc1ncnc2c1ncn2[C@@H]1O[C@H](CO)[C@@H](O)[C@@H]1O [Vidarabine] | 1.13 ± 0.058 |
| COc1cccc(C=NCCN=Cc2cccc(OC)c2[O-])c1[O-].[Cl-].[Mn+3] | 1.27 ± 0.1 |
| COC(=O)Nc1nc2cc(Sc3ccccc3)ccc2[nH]1 [Fenbendazole] | 0.746 ± 0.1 |
| CC(C)(C)c1cc(C(C)(C)C)c(NC(=O)c2c[nH]c3ccccc3c2=O)cc1O [Ivacaftor (VX-770)] | 0.531 ± 0.17 |
| Cc1ccc([C@@H]2O[C@H](CO)[C@@H](O)[C@H](O)[C@H]2O)cc1Cc1ccc(-c2ccc(F)cc2)s1 [Canagliflozin] | 1.31 ± 0.21 |
| CC(C)NC[C@@H](C(=O)N1CCN(c2ncnc3c2[C@H](C)C[C@H]3O)CC1)c1ccc(Cl)cc1 | 0.585 ± 0.34 |
| Cn1c(=O)c2c(ncn2CC2OCCO2)n(C)c1=O [Doxofylline] | 1.17 ± 0.037 |
| COc1ccc(Oc2cc(C)c(-c3csc(NC(=O)c4ccncc4)n3)c(C)c2)cc1 | 0.89 ± 0.15 |
| CCCCNc1ncc(C(=O)NCc2ccc(-n3ccnc3)cc2)c(NC2CCC(O)CC2)n1 (stereo not given) | 0.785 ± 0.27 |
| C=CC(=O)Nc1cccc(Sc2nc(Nc3ccc(N4CCN(C)CC4)cc3)ncc2Cl)c1 | 0.846 ± 0.02 |
| CCOC(=O)[C@H]1O[C@@H]1C(=O)N[C@@H](CC(C)C)C(=O)NCCC(C)C [Aloxistatin] | 1.18 ± 0.18 |
| Nc1nc2c(ncn2COC(CO)CO)c(=O)[nH]1 [Ganciclovir] | 1.1 ± 0.17 |
| Cc1csc(-c2nnc(Nc3ccc(Oc4ncccc4-c4ccnc(N)n4)cc3)c3ccccc23)c1 | 1.13 ± 0.22 |
| CC(C)Oc1ccc(-c2cnc3c(-c4ccnc5ccccc45)cnn3c2)cc1 | 1.15 ± 0.088 |
| CNCCc1ccccn1 [Betahistine 2HCl] | 1.03 ± 0.081 |
| c1ccc2c(CCNc3ccc(Nc4ccncc4)cc3)c[nH]c2c1 | 0.999 ± 0.084 |
| CC(C)CCNC(=O)[C@H](CC(C)C)NC(=O)[C@H]1O[C@@H]1C(=O)O [Loxistatin Acid (E-64C)] | 1.15 ± 0.11 |
| NCCCCCC(=O)O [(6-)ε-Aminocaproic acid] | 1.03 ± 0.033 |
| COc1c(C)cnc(Cn2cnc3c(Cl)nc(N)nc32)c1C | 0.762 ± 0.11 |
| COc1ccc2c(Oc3ccc(NC(=O)c4c(C)n(CC(C)(C)O)n(-c5ccccc5)c4=O)nc3)ccnc2c1 | 1.02 ± 0.15 |

| SMILES | relative cell viability |
| --- | --- |
| CCCNC(=O)NS(=O)(=O)c1ccc(Cl)cc1 [Chlorpropamide] | 1.17 ± 0.016 |
| COc1ccc(Cl)c(Nc2nc3ccccc3nc2NS(=O)(=O)c2cccc(NC(=O)C(C)(C)N)c2)c1 [Pilaralisib (XL147)] | 1.01 ± 0.097 |
| COc1cc(-c2ncn(/C=C\C(=O)OC(C)C)n2)cc(C(F)(F)F)c1 | 0.25 ± 0.0078 |
| COc1ccc(-c2nc(N3CCOCC3)c3sc(CN(C)c4ncc(C(=O)NO)cn4)cc3n2)cn1 | 0.1569 ± 0.00068 |
| O=C(Cc1ccccc1)Nc1nnc(CCSCCc2nnc(NC(=O)Cc3ccccc3)s2)s1 | 0.713 ± 0.053 |
| Cc1cnc(Nc2ccc(OCCN3CCCC3)cc2)nc1Nc1cccc(S(=O)(=O)NC(C)(C)C)c1 | 0.854 ± 0.19 |
| CO[C@H]1/C=C/O[C@@]2(C)Oc3c(C)c(O)c4c(O)c(c5c(nc6cc(C)ccn65)c4c3C2=O)NC(=O)/C(C)=C\C=C\[C@H](C)[C@H](O)[C@@H](C)[C@@H](O)[C@@H](C)[C@H](OC(C)=O)[C@@H]1C [Rifaximin] | 0.997 ± 0.15 |
| C[C@]12C=CC(=O)N[C@@H]1CC[C@@H]1[C@@H]2CC[C@]2(C)[C@@H](C(=O)Nc3cc(C(F)(F)F)ccc3C(F)(F)F)CC[C@@H]12 [Dutasteride] | 0.848 ± 0.029 |
| CN(C)S(=O)(=O)c1ccc2c(c1)/C(=C/c1cc3c([nH]1)CCCC3)C(=O)N2 | 0.891 ± 0.022 |
| Clc1cccc(Cl)c1NC1=NCCN1 [Clonidine HCl] | 1.05 ± 0.0021 |
| Nc1ccccc1NC(=O)c1cnccn1 | 1.16 ± 0.018 |
| CC(C)c1ccccc1Cc1cc(C(=O)Nc2ccc(S(=O)(=O)c3ccccc3C(C)(C)C)cc2)c(O)c(O)c1O | 0.801 ± 0.026 |
| O=C(O)CCc1ccc(NCc2cccc(Oc3ccccc3)c2)cc1 | 0.995 ± 0.041 |
| Clc1ccc2c(c1)CCc1cccnc1C2=C1CCNCC1 [Desloratadine] | 1.26 ± 0.38 |
| O=C1NCC2(CCN(CCc3ccccc3)CC2)O1 [Fenspiride HCl] | 0.875 ± 0.087 |
| CCS(=O)(=O)N1CC(CC#N)(n2cc(-c3ncnc4[nH]ccc34)cn2)C1 | 1.2 ± 0.077 |
| Nc1nccc(Oc2ccc(NC(=O)c3c[nH]cc(-c4ccc(F)cc4)c3=O)cc2F)c1Cl | 0.947 ± 0.031 |
| C[C@H]1CO[C@@H]2Cn3cc(C(=O)NCc4ccc(F)cc4F)c(=O)c(O)c3C(=O)N12 | 1.04 ± 0.11 |
| C[C@H]1[C@H](C)CC[C@]2(C(=O)O)CC[C@]3(C)C(=CC[C@@H]4[C@@]5(C)CC[C@H](O)C(C)(C)[C@@H]5CC[C@]43C)[C@H]12 [Ursolic Acid] | 0.984 ± 0.1 |
| NC(=O)Nc1cc(-c2cccc(F)c2)sc1C(=O)N[C@H]1CCCNC1 | 0.55 ± 0.021 |
